Inconclusive results, whose numbers are uncertain, are shown with a selection of clear calls. A potency beside an inconclusive call is a rough fit, not a confirmed value. The source made the active and inactive calls. Calls come from the whole dose curve; as a rule, active = well fitted cell-killing curve with a large enough effect; inconclusive = small, poorly fitted or top-dose-only effect; inactive = flat fitted curve, though single readings scatter.
Test: Cell Viability - LYMP2-022 (AID 987); note: nearly all actives have a fitted effect of over 55% in size;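 for viability change, negative = cytotoxic: 0% = DMSO alone and full effect = tetraoctylammonium bromide at 92 µM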
Conditions: LYMP2-022 lymphoblastoid cell viability; viability change, negative = cytotoxic: at 92.2 µM (top of the series)
Summary of the method: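 qHTS: human lymphoblastoid cells 2500/well; 5 hr 37 C; cpd added; 24 hr 37 C; CellTiter-Glo, 30 min RT; luminescence. AC50 via Hill fit; tetraoctylammonium bromide positive ctrl.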
Potency is the fitted concentration of half-maximal effect; tags give direction and shape of the fitted curve.

Compound | Potency | viability change, negative = cytotoxic
CC/C(=C(\c1ccccc1)c1ccc(OCCN(C)C)cc1)c1ccc(O)cc1 | inconclusive: 50.1 µM [cytotoxic, partial curve, poor fit] | 
CC(C)[N+](=O)[O-] |  | inactive: 4.27%
C=CC(=O)OCC(CO)(COC(=O)C=C)COC(=O)C=C | inconclusive: 2 µM [cytotoxic, full curve, poor fit] | 

Test: Cell Viability - LYMP2-024 (AID 988); note: nearly all actives have a fitted effect of over 60% in size;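 for activity change, negative = cytotoxicity: plate controls were DMSO only for no effect and 92 µM tetraoctylammonium bromide for full effect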
Conditions: LYMP2-024 lymphoblastoid cell viability; series mostly up to 92.2 µM; activity change, negative = cytotoxicity: at the top concentration
Summary of the method: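 Steps: seed 2500 cells/well, 5 hr 37 C; add compound, 24 hr 37 C; add CellTiter-Glo, 30 min room temperature; read luminescence. AC50 derived by Hill modelling of concentration-dependent ATP loss.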

Compound | Potency | activity change, negative = cytotoxicity
c1cc(OCC2CO2)cc(OCC2CO2)c1 (stereo not drawn) | active: 39.8 µM | 
FC(F)(F)c1ccc(Cl)cc1 |  | inactive: -2.16%
CC/C(=C(\c1ccccc1)c1ccc(OCCN(C)C)cc1)c1ccc(O)cc1 | inconclusive: 50.1 µM [cytotoxic, partial curve, poor fit] | 
C=CC=O | inconclusive: 79.4 µM [cytotoxic, partial curve, poor fit] | 
C=CC(=O)OCC(CO)(COC(=O)C=C)COC(=O)C=C | active: 3.16 µM | 

Source: PubChem BioAssay (NCATS)
